Hit rate of the full screen: of about 270,000 compounds, about 5,800 (2.1%) were called active. Inconclusive results, whose numbers are uncertain, are shown with a selection of clear calls. Calls follow the shape of the dose curve; as a rule, active = well fitted inhibition curve with a large enough effect; inconclusive = small, poorly fitted or top-dose-only effect; inactive = flat fitted curve, though single readings scatter. Potencies of inconclusive entries are doubtful fits and often do not repeat.
Target: Microtubule-associated protein tau (Homo sapiens) (UniProt P10636)
Assay: qHTS for Inhibitors of Tau Fibril Formation, Thioflavin T Binding; also: nearly all actives have a fitted effect of over 55% in size
Details: recombinant tau K18 P301L (four-repeat tau fragment), heparin-induced fibrillization, ThT fluorescence; series mostly up to 57.4 µM
How it was run: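 Recombinant human tau K18 fragment […] carrying P301L, 15 uM unlabeled plus 0.24 uM Alexa 594-labeled, was fibrillized with 20 uM heparin in 100 mM sodium acetate pH 7 for 6 hr at 37 C; 30 uM ThT fluorescence read after 1 hr.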
Potency is read from the fitted curve at half-maximal effect; tags tell the direction and shape of the fitted curve.

Sequence of UniProt P10636 (P10636 whole entry, looked up): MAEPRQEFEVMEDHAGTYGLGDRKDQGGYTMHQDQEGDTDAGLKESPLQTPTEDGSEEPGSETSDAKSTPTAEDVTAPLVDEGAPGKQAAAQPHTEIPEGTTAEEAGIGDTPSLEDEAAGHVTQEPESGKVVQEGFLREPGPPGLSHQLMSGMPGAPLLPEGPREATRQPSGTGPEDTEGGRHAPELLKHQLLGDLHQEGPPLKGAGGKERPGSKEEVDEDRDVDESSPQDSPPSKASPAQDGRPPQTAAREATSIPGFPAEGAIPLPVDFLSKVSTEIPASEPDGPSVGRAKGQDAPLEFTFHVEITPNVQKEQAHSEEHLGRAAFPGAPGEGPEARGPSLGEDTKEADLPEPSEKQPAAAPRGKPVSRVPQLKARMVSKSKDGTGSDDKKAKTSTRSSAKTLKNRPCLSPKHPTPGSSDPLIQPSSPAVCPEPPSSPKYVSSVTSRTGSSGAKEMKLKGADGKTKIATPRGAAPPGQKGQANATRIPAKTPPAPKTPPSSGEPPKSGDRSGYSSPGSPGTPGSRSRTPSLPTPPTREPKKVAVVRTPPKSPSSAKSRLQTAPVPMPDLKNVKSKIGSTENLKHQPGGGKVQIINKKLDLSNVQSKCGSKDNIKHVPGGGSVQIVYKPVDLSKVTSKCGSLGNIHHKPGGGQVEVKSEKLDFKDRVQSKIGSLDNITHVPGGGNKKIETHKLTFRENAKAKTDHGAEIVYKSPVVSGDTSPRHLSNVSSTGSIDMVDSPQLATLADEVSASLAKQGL

| Compound | Potency |
| --- | --- |
| COc1ccc(Cl)cc1S(=O)(=O)N1CCN(C)CC1 | inactive |
| CCCCC(=O)Nc1ncc2c(n1)CC(C)(C)CC2=O | inactive |
| COc1ccc(S(=O)(=O)n2nc(C)c(S(=O)(=O)N3CCCCC3)c2C)cc1 | inactive |
| CC(C)COc1ccc(C(=O)Nc2ccc(NC(=O)c3ccco3)c(Cl)c2)cc1 | inconclusive: 0.794 µM [inhibitor, full curve] |
| Cc1nc(-c2cccc(S(=O)(=O)N3CCOCC3)c2)cs1 | inconclusive: 28.2 µM [inhibitor, partial curve] |
| Cc1ccc(NC(=O)C(=O)NCC(c2cccnc2)N2CCOCC2)cc1 (centres undefined) | inactive |
| Cc1sc2nc(COC(=O)c3ccc(N4CCCC4)c([N+](=O)[O-])c3)[nH]c(=O)c2c1C | inconclusive: 6.31 µM [inhibitor, partial curve] |
| COc1ccc(-c2nn(CCC(=O)O)cc2/C=C2\SC(N)=NC2=O)cc1OC | inactive |
| CC(=O)OCC1=C(C(=O)O)N2C(=O)C(NC(=O)c3ccc(F)cc3)C2SC1 (centres undefined) | inconclusive: 15.8 µM [inhibitor, partial curve] |
| CCOC(=O)CSC1=C(C#N)C(=O)NC(c2ccc(OC)c(OC)c2)S1 (centres undefined) | inconclusive: 39.8 µM [inhibitor, single point] |
| COc1ccc(C2=C/C(=C\c3ccc(OC(C)=O)cc3)C(=O)O2)cc1 | inconclusive: 0.631 µM [inhibitor, full curve] |
| Cn1c(=O)n(C)c2cc(NS(=O)(=O)c3ccc(F)cc3)c(NCc3ccccc3)cc21 | inconclusive: 15.8 µM [inhibitor, partial curve] |
| CCc1ccc(NC(=O)CC(c2cc(OC)c(OC)c(OC)c2)N2Cc3ccccc3C2=O)cc1 (centres undefined) | inactive |
| O=C(CSC1=NCCN1)Nc1cccc(C(F)(F)F)c1 | inconclusive: 31.6 µM [inhibitor, partial curve] |
| O=[N+]([O-])c1ccc2[nH]c(O)c(N=NC(=S)NCC3CCCO3)c2c1 (centres undefined) | inconclusive: 12.6 µM [inhibitor, partial curve] |
| Cc1ccc(NC(=O)c2cc(-c3ccc(C)o3)nc3ccccc23)nc1 | inconclusive: 22.4 µM [inhibitor, single point] |
| O=C(NC(=S)Nc1ccc(N2CCOCC2)cc1)c1cccc([N+](=O)[O-])c1 | inconclusive: 1.78 µM [inhibitor, full curve] |
| COc1ccc(C(=O)NCCn2cc(SCc3cccc(F)c3)c3ccccc32)cc1OC | inconclusive: 17.8 µM [inhibitor, partial curve] |
| COc1ccccc1CNC(=O)CN1C(=O)CCc2cc(S(=O)(=O)N3CCCCC3)ccc21 | inactive |
